# Structures can show the parent of a compound that is named as a salt.
# Test system: MLKL phosphorylation, HT29-L23 human colorectal adenocarcinoma cells
# Test: cells
# Conditions: read-out: pMLKL HCS Cell Assay (IC50, uM)
row,Structure (SMILES),IC50 [µM]
1,"Cc1c(F)cc(-c2cc(C(F)(F)F)c3c(N)ncnn23)cc1C(=O)N[C@@H]1CN(C(=O)C2CCC(F)(F)C2)C[C@@H]1F (stereo partly drawn) [Example 679, 5-[4-amino-5-(trifluoromethyl)pyrrolo[2,1-f][1,2,4]triazin-7-yl]-N-[(3R,4S)-1-(3,3-difluorocyclopentanecarbonyl)-4-fluoropyrrolidin-3-yl]-3-fluoro-2-methylbenzamide]",0.0027
2,"Nc1ncnn2c(-c3ccc(OCC(F)(F)F)c(C(=O)N[C@@H]4CN(C(=O)C5CC(F)(F)C5)C[C@@H]4F)c3)cc(C(F)(F)F)c12 [Example 1072, 5-[4-amino-5-(trifluoromethyl)pyrrolo[2,1-f][1,2,4]triazin-7-yl]-N-[(3R,4S)-1-(3,3-difluorocyclobutanecarbonyl)-4-fluoropyrrolidin-3-yl]-2-(2,2,2-trifluoroethoxy)benzamide]",0.079
3,"CC(C)(F)C(=O)N1C[C@H](F)[C@H](NC(=O)c2cccc(-c3cc(C(F)(F)F)c4c(N)ncnn34)c2F)C1 [Example 769, 3-[4-amino-5-(trifluoromethyl)pyrrolo[2,1-f][1,2,4]triazin-7-yl]-2-fluoro-N-[(3R,4S)-4-fluoro-1-(2-fluoro-2-methylpropanoyl)pyrrolidin-3-yl]benzamide]",0.295
4,"CC(C)(C(=O)N1C[C@H](F)[C@H](NC(=O)c2cc(F)cc(-c3cc(C(F)(F)F)c4c(N)ncnn34)c2)C1)C(F)(F)F [Example 598, 3-[4-amino-5-(trifluoromethyl)pyrrolo[2,1-f][1,2,4]triazin-7-yl]-5-fluoro-N-[(3R,4S)-4-fluoro-1-(3,3,3-trifluoro-2,2-dimethylpropanoyl)pyrrolidin-3-yl]benzamide]",0.028
5,"CCc1ccc(-c2cc(C(F)(F)F)c3c(N)ncnn23)cc1C(=O)N[C@@H]1CN(C(=O)CC(O)(C(F)(F)F)C(F)(F)F)C[C@@H]1F [Example 972, 5-[4-amino-5-(trifluoromethyl)pyrrolo[2,1-f][1,2,4]triazin-7-yl]-2-ethyl-N-[(3R,4S)-4-fluoro-1-[4,4,4-trifluoro-3-hydroxy-3-(trifluoromethyl)butanoyl]pyrrolidin-3-yl]benzamide]",0.0069
6,"Cc1cc(F)c(-c2cc(C(F)(F)F)c3c(N)ncnn23)cc1C(=O)N[C@@H]1CN(C(=O)c2ccncc2F)C[C@@H]1F [Example 834, 5-[4-amino-5-(trifluoromethyl)pyrrolo[2,1-f][1,2,4]triazin-7-yl]-4-fluoro-N-[(3R,4S)-4-fluoro-1-(3-fluoropyridine-4-carbonyl)pyrrolidin-3-yl]-2-methylbenzamide]",0.01
7,"Cc1ccc(-c2cc(C(F)(F)F)c3c(N)ncnn23)c(F)c1C(=O)N[C@@H]1CN(C(=O)CC(C)(O)C(F)(F)F)C[C@@H]1F (stereo partly drawn) [Example 746, 3-[4-amino-5-(trifluoromethyl)pyrrolo[2,1-f][1,2,4]triazin-7-yl]-2-fluoro-N-[(3R,4S)-4-fluoro-1-(4,4,4-trifluoro-3-hydroxy-3-methylbutanoyl)pyrrolidin-3-yl]-6-methylbenzamide]",0.0081
8,"Nc1ncnn2c(-c3cc(C(=O)N[C@@H]4CN(C(=O)C5CC5(F)F)C[C@@H]4F)c(F)cc3F)cc(C(F)(F)F)c12 (stereo partly drawn) [Example 788, 5-[4-amino-5-(trifluoromethyl)pyrrolo[2,1-f][1,2,4]triazin-7-yl]-N-[(3R,4S)-1-(2,2-difluorocyclopropanecarbonyl)-4-fluoropyrrolidin-3-yl]-2,4-difluorobenzamide]",0.0083
9,"[2H]C([2H])([2H])Oc1ncc(-c2cc(CN3CC(F)(F)C3)c3c(N)ncnn23)cc1C(=O)N[C@@H]1CN(S(=O)(=O)c2ccc(F)cc2)C[C@@H]1F [Example 1280, 5-{4-amino-5-[(3,3-difluoroazetidin-1-yl)methyl]pyrrolo[2,1-f][1,2,4]triazin-7-yl}-N-[(3R,4S)-4-fluoro-1-(4-fluorobenzenesulfonyl)pyrrolidin-3-yl]-2-(methoxy-d3)nicotinamide]",0.00032
10,"CCC(O)(C(=O)N1C[C@H](F)[C@H](NC(=O)c2cc(-c3cc(C(F)(F)F)c4c(N)ncnn34)cc(C)c2Cl)C1)C(F)(F)F (stereo partly drawn) [Example 703, 5-[4-amino-5-(trifluoromethyl)pyrrolo[2,1-f][1,2,4]triazin-7-yl]-2-chloro-N-[(3R,4S)-4-fluoro-1-[2-hydroxy-2-(trifluoromethyl)butanoyl]pyrrolidin-3-yl]-3-methylbenzamide]",0.009
11,"COc1ncc(-c2cc(CN3CCC(F)(F)CC3)c3c(N)ncnn23)cc1C(=O)N[C@@H]1CN(C(=O)OCC(F)(F)C(F)C(F)(F)F)C[C@@H]1F (stereo partly drawn) [Example 1528, 2,2,3,4,4,4-hexafluorobutyl (3R,4S)-3-(5-{4-amino-5-[(4,4-difluoropiperidin-1-yl)methyl]pyrrolo[2,1-f][1,2,4]triazin-7-yl}-2-methoxypyridine-3-amido)-4-fluoropyrrolidine-1-carboxylate]",0.078
12,"C[C@H]1CN(C(=O)C2CCC(F)(F)CC2)C[C@H]1NC(=O)c1cc(-c2cc(C(F)(F)F)c3c(N)ncnn23)cnc1C(F)(F)F [Example 24, 5-[4-amino-5-(trifluoromethyl)pyrrolo[2,1-f][1,2,4]triazin-7-yl]-N-[(3S,4S)-1-(4,4-difluorocyclohexanecarbonyl)-4-methylpyrrolidin-3-yl]-2-(trifluoromethyl)pyridine-3-carboxamide]",0.247
13,"Cc1ncc(-c2cc(C(F)(F)F)c3c(N)ncnn23)cc1C(=O)N[C@@H]1CN(C(=O)[C@](C)(O)C(F)(F)F)C[C@@H]1F [Example 372, 5-[4-amino-5-(trifluoromethyl)pyrrolo [2,1-f][1,2,4]triazin-7-yl]-N-[(3R,4S)-4-fluoro-1-[(2S)-3,3,3-trifluoro-2-hydroxy-2-methylpropanoyl]pyrrolidin-3-yl]-2-methylpyridine-3-carboxamide, TFA]",0.117
14,"Nc1ncnn2c(-c3ccc(CF)c(C(=O)N[C@@H]4CN(C(=O)CC(C(F)(F)F)C(F)(F)F)C[C@@H]4F)c3)cc(C(F)(F)F)c12 [Example 915, 5-[4-amino-5-(trifluoromethyl)pyrrolo[2,1-f][1,2,4]triazin-7-yl]-N-[(3R,4S)-4-fluoro-1-[4,4,4-trifluoro-3-(trifluoromethyl)butanoyl]pyrrolidin-3-yl]-2-(fluoromethyl)benzamide]",0.0018
15,"COc1ncc(-c2cc(C(F)(F)F)c3c(N)ncnn23)cc1C(=O)NCCN(C)c1ccccc1 [Example 143, 5-[4-amino-5-(trifluoromethyl)pyrrolo[2,1-f][1,2,4]triazin-7-yl]-2-methoxy-N-{2-[methyl(phenyl)amino]ethyl}pyridine-3-carboxamide]",0.311
16,"COc1ncc(-c2cc(CN3CCC(F)(F)CC3)c3c(N)ncnn23)cc1C(=O)N[C@@H]1CN(C(=O)OCC2CC2)C[C@@H]1F [Example 1517, cyclopropylmethyl (3R,4S)-3-(5-{4-amino-5-[(4,4-difluoropiperidin-1-yl)methyl]pyrrolo[2,1-f][1,2,4]triazin-7-yl}-2-methoxypyridine-3-amido)-4-fluoropyrrolidine-1-carboxylate]",0.0011
17,"COc1ncc(-c2cc(C(F)(F)F)c3c(N)ncnn23)cc1C(=O)Nc1nc(C(=O)NC(C)C)co1 [Example 1302, 5-[4-amino-5-(trifluoromethyl)pyrrolo-[2,1-f][1,2,4]triazin-7-yl]-2-methoxy-N-{4-[(propan-2-yl)carbamoyl]-1,3-oxazol-2-yl}pyridine-3-carboxamide]",0.356
18,"COc1ncc(-c2cc(C(F)(F)F)c3c(N)ncnn23)cc1C(=O)N[C@H]1CCN(Cc2ccccc2)C1 [Example 119, 5-[4-amino-5-(trifluoromethyl)pyrrolo[2,1-f][1,2,4]triazin-7-yl]-N-[(3S)-1-benzylpyrrolidin-3-yl]-2-methoxypyridine-3-carboxamide]",0.042
19,"COc1cc(-c2cc(C(F)(F)F)c3c(N)ncnn23)cc(C(=O)N[C@@H]2CN(C(=O)CC(C)C(F)(F)F)C[C@@H]2F)c1OC (stereo partly drawn) [Example 591, 5-[4-amino-5-(trifluoromethyl)pyrrolo[2,1-f][1,2,4]triazin-7-yl]-N-[(3R,4S)-4-fluoro-1-(4,4,4-trifluoro-3-methylbutanoyl)pyrrolidin-3-yl]-2,3-dimethoxybenzamide]",0.237
20,"COc1ncc(-c2cc(CN3CCCC(C(F)(F)F)C3)c3c(N)ncnn23)cc1C(=O)N[C@@H]1CN(C(=O)[C@@](C)(O)C(F)(F)F)C[C@@H]1F (stereo partly drawn) [Example 1587, 5-(4-amino-5-{[3-(trifluoromethyl)piperidin-1-yl]methyl}pyrrolo[2,1-f][1,2,4]triazin-7-yl)-N-[(3R,4S)-4-fluoro-1-[(2R)-3,3,3-trifluoro-2-hydroxy-2-methylpropanoyl]pyrrolidin-3-yl]-2-methoxypyridine-3-carboxamide]",0.0014
21,"CC(C)C(=O)N1C[C@H](F)[C@H](NC(=O)c2ccc(F)c(-c3cc(C(F)(F)F)c4c(N)ncnn34)c2)C1 [Example 420, 3-[4-amino-5-(trifluoromethyl)pyrrolo[2,1-f][1,2,4]triazin-7-yl]-4-fluoro-N-[(3R,4S)-4-fluoro-1-(2-methylpropanoyl)pyrrolidin-3-yl] benzamide, TFA]",0.14
22,"CCOc1ccc(-c2cc(C(F)(F)F)c3c(N)ncnn23)cc1C(=O)N[C@@H]1CN(C(=O)[C@@](C)(O)C(F)(F)F)C[C@@H]1F [Example 1107, 5-[4-amino-5-(trifluoromethyl)pyrrolo[2,1-f][1,2,4]triazin-7-yl]-2-ethoxy-N-[(3R,4S)-4-fluoro-1-[(2R)-3,3,3-trifluoro-2-hydroxy-2-methylpropanoyl]pyrrolidin-3-yl]benzamide]",0.0047
23,"Cc1ccc(-c2cc(CN3CCC(C(F)(F)F)CC3)c3c(N)ncnn23)cc1C(=O)N[C@@H]1CN(C(=O)c2ccccc2F)C[C@@H]1F [Example 1654, 5-(4-amino-5-{[4-(trifluoromethyl)piperidin-1-yl]methyl}pyrrolo[2,1-f][1,2,4]triazin-7-yl)-N-[(3R,4S)-4-fluoro-1-(2-fluorobenzoyl)pyrrolidin-3-yl]-2-methylbenzamide]",0.00044
24,"Nc1ncnn2c(-c3cnc(F)c(C(=O)NCC[C@H](O)c4ccc(Cl)cc4)c3)cc(C(F)(F)F)c12 [Example 17, 5-[4-amino-5-(trifluoromethyl)pyrrolo[2,1-f][1,2,4]triazin-7-yl]-N-[(3S)-3-(4-chlorophenyl)-3-hydroxypropyl]-2-fluoropyridine-3-carboxamide]",0.0098

# From patent publication US11618753B2 (priority 2018, dated 2023)
